The chains are these.
B1: LINE1-full (parent)
chain: UACGUAGGUGGUUUUCCCCUGAUAGUGCUAAGGGGGCCUGGAAGUUUGGACUGGGCAGAGCUCAACACAGCGUGGCAAAGUGGCUGUGGCUAGACUGCCUCUCUGGAUUCCUCGUCACUCAGCAGGGCAUCUCUGAGAGAAAUGCC

The source gives no read counts; variants with many changes may rest on few reads.

Variants of B1 are the subject of this series. Kind of series: self-cleavage, relative activity (ratio to wild type); higher = more cleavage; in vitro, sequencing; the parent is a self-cleaving ribozyme.
As to UACAUAGGUGGUUUUCCCCUGAUAGUGCUAAGGGGGCCUGGAAGUUUGGACCGGGCAGAGCUCAACACGGCGUGGCAAAGUGGCUGUGGCUAGACUGCCUCUCUGGAUUCCUCGUCACUCAGCAGGGCAUCUCUGAGAGAAAUGCC [G4A U52C A69G], the self-cleavage came out at 0.

Consider UACGUAGGUGGUUUUCCCCUGAUAGUGCUAAGGGGGCCUGGAAGUUUGGACUGGGCAGAGCACAACACAGCGUGGCAAAGUGGCCGUGGCUAGACUGCCUCUCUGGAUUCCUCGUCACUCAGCAGGGCUUCUCUGAGGGAAAUGCC [U62A U85C A129U A138G], for which the self-cleavage turned out to be 0.15.

Take UACGUAGGUGGUUUUCCCCUGAUAGUGCUAAGGGGGCCUGGAAGUUUGGACUGGGCAGAGCUCAACACAGCGUGGCAAGGUGGCUGUGGCUUGACUGCCUCUCUGGAUUCCUCGUCACUCAGCAGGGCAUCUCUGAGAGGAAUGCC [A79G A92U A140G]: the self-cleavage turned out to be 0.41.

In the case of UACGUAGGUGGUUCACCCCUGAUAGUGCUAAGGGGGCCUGGAAGUCUGGACUGGGCAGAGCUCAACACAGCGUGGCAAAGUGGCUGUGGCUAGACUGCCUCUCUGGAUUCCUCGUCACUCAGCAGGGCGUCUCUGAGAGAAAUGCC [U14C U15A U46C A129G], the self-cleavage is 0.98.

On to UACGUAGGUGGUUUUCCCCCGAUAGUGCUAAGGGGGCCUGGAAGUUUGGACUGGGCAGAGCUCAGCACAGCGUGGCAAAGUGGCUGUGGCUAGACUGCCUCUCUGGAUUCCUCGUCACUCAGCAGGGCAUCUCCGAGAGAAAUGCC [U20C A65G U134C], for which the self-cleavage stood at 0.16.

As to UACGUAGGUGGGUUUCCCCUGAUAGCGCUAAGGGGGCCUGGAAGUUUGGACUGGGCAGAGCUCAACACAGCGUGGCAAAGUGGCUGUGGCUAGUCUGCCUCUCUGGAUUCCUCGUCACUCAGCAGGGCAUCUCUGAGAGAAAUGCC [U12G U26C A94U], the self-cleavage came out at 0.66.

With UACGUAGGUGGUCUUACCCUGAUGGUGCUAAGGGGGCCAGGAAGUUUGGACUGGGCAGAGCUCAACACAGCGCGGCAAAGUGGCUGUGGCUAGACUGCCUCUCUGGAUUCCUCGUCUCUCAGCAGGGCAUCUCUGAGAGAAACGCC [U13C C16A A24G U39A U73C A117U U143C], the self-cleavage came to 1.47.

Consider UGCGUAGGUGGUUCCCCCCUGAUAGUGCUAAGGGGGCCUGGAAGUUUGGACUGGGCAGAGCUCAACACAGUGUGGCAAAGUGGCUGUGGCUAGACUGCCUCUCUGGAUUCCUCGUCACUCAGCAGGGCGUCUCUGGGAGAAAUGCC [A2G U14C U15C C71U A129G A136G], for which the self-cleavage turned out to be 1.25.

For UACGUAGGUGGUUCUCCCCUGAUAGUGCUAAGGGGGCCCGGAAGUUUGGACUGAGCAGAGCUCAACACAGCGUGGCAAAGUGGCUGUGGCUAGACUGGCUCUCUGGAUUCCUCGUCACUCAGCUGGGCAUCUCUGAGAGAAAUGCC [U14C U39C G54A C98G A124U], the self-cleavage came to 0.17.

On to UACGUAGGUGGUUUUCCCCUGAUAGUGCAAAGGGGGCCUGGAAGUCUGGACUGGGCAGAGCUCAACACAGCGUGGCAAAGUGGCUGUGGCUAGAUUGCCUCUCUGGAUUCCUCGUCACUCAGCAGGGCAUCUCUGAGAGAAGUGCC [U29A U46C C95U A142G], for which the self-cleavage was determined as 0.5.

In the case of UAUGUAGGUGGUUUUCCCCUGAUAGUGCUAAGGGGGCCUAGAAGUUUGGACUGGGCAGAGCACAACACGGCGUGGCAAAGUGGCUGUGGCUAGACUGCCUCUCUGGAUUCCUCGUCACUCAGCAGGGCAUCUCUGAGAGAAAUGCC [C3U G40A U62A A69G], the self-cleavage was found to be 0.06.

For UACGUAGGUGGGUUUCCACUGAUAGUGCUAAGGGGGCCUGGAAGUUUGGACUGGGCAGAGCUCAACACAGCGUGGCAAAGUGGCUGCGGCUAGACUGCCUCACUGGAUUCCUCGUCACUCAGCAGGGCAUCUCUGAGAGAAAUGCC [U12G C18A U87C U102A], the self-cleavage stood at 0.28.

As for CACGUAGGUGGUUUUCCCCUGAUAGUGCUAAGGGGGCCUGGAAGUUUGGACUGGGCAGAGCUCAUCACAGCGUGGCAAAGUGGCUGUGGCUAGGCUGCCUCUCUGGAUUCCUCGUCACUCAGCAGGGCAUCUCUGAGAGAAGUGCC [U1C A65U A94G A142G], the self-cleavage was found to be 0.

Turning to UACGUAGGUGGUUUUCCCCUGAUAGUGCUAAGGGGGCCUGGAAGUUUGGACUGGGCAGAGCUCAACACAGCGUGGCAAAGUGGCUGUGGCUAGACUGCCUCUCUGGAUUCCUCGUCUCUCAGCAGGGCAUCUCUGGGAGGAAUGCC [A117U A136G A140G], the self-cleavage turned out to be 1.41.

Consider UACGUAGGUGGUUUUCCCCUGAUAGUGCUAAGGGGGCCUGGAAGUUUGGACUGGGCAGAGCACAACACAGCGUGGCAAAGUGGCUGUGGCUAGACUGCCUCUCUGGAUCCCUCGCCACUCAGCAGGGCAUCUCUGAGAGAAAUGCC [U62A U109C U115C], for which the self-cleavage was determined as 0.06.

Turning to UACGUAGGUGGUUCUCCCCUGAUAGUGCUGAGGGGGCCUGGAUGUUUGGACUGGGCAGAGCUCAACACAGCGUGGCAAAGUGGCUGUGGCUAGACUGCCUCUCUGGAUUCCUCGUCACUCAGCAGGGCAUCUCUGAGAGAAAUGCC [U14C A30G A43U], the self-cleavage was 1.

In the case of UUCGUAGGUGGUUCUCCCCUGAUAGUGCUAAGGGGGCCUGGAAGUUUGGUCUGGGCAGAGCUCAACACAGCGUGGCAAAGUGGCUGUGGCUAGACUGCCUCUCUGGAUUCCUCGUCACUCAGCAGGGCAUCUCUGAGAGAAGUGCC [A2U U14C A50U A142G], the self-cleavage stood at 0.89.

Take UACGUAGGUGGUUUCCCCCCAAUAGUGCUAAGGGGGCCUGGAAGUUUGGACUGGGCAGAGCCCAACACAGCGUGGCAAAGUGGCUGUGGCUAGACUGCCUCUCUGGACUCCUCGUCACUCAGCAGGGCAUCUCAGAGAGAAAUGCC [U15C U20C G21A U62C U108C U134A]: the self-cleavage was found to be 0.19.

In the case of UACGUAGGUGGUUUUCCCCUGAUAGUGCUAAGGGGGCCUGGAAGUUUGGACUGGGCGGAGCUCAACACAACGUGGCAAAGUGGCUGUGGCUAGACUGCCUCUCUGGACUCCUCGUCACUCAGCAGGGCAUCUCUGAGAGAAAUGCC [A57G G70A U108C], the self-cleavage is 0.13.

The values above are taken from the RNAGym collection of RNA variant scans (doi:10.7554/elife.90254).
